# Assay results as given in the BET-seq Pho4 binding data (Le et al. 2018).
# Some of the results follow. The energies were worked out here from pooled read counts, against the library average; single values are noisy.
# Biological target: T1, Pho4 (S. cerevisiae) (UniProt P07270)
# T1 sequence: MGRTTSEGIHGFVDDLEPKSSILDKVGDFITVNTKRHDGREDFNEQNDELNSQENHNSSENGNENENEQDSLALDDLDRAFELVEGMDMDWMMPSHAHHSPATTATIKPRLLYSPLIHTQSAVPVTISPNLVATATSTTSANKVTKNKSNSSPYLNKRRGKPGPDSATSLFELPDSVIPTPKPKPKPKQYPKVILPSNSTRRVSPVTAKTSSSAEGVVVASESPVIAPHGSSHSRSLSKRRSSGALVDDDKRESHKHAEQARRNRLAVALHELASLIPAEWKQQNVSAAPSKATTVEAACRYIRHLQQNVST
# Assay: relative binding free energy (BET-seq); higher = weaker binding
# Settings: reference: library average
row,Sequence,relative binding free energy [kcal/mol]
1,TTGCTCACGTGGGTAG,0.18
2,ATGGACACGTGGTAAA,0.04
3,CTATGCACGTGGTTGA,-0.09
4,TGTAACACGTGTAAAG,0.12
5,TAGTTCACGTGTTTGC,0.23
6,ATTGTCACGTGTGGAG,0.23
7,TGTTCCACGTGTGGCG,0.12
8,TTGAGCACGTGATAGT,0.05
9,ACTTGCACGTGAAGGG,0.19
10,AGGATCACGTGTGGCT,0.14
11,TGAAACACGTGGAAGG,0.18
12,ATCTTCACGTGGGGCG,0.14
13,TTCGTCACGTGTCGTT,0.13
14,AGACTCACGTGGATGT,0.34
15,AGATGCACGTGTGGTC,-0.03
16,GTGATCACGTGTGGTT,0.19
17,TATTGCACGTGCTTTA,-0.13
18,AAGTACACGTGGTAGT,0.08
19,GATGCCACGTGAGTGG,0.22
20,ATTGGCACGTGGTATG,-0.14
21,AGGCGCACGTGGTGTC,-0.22
22,GGTGCCACGTGGGTTG,-0.11
23,GCGTTCACGTGGGTTC,0.39

row,Sequence,relative binding free energy [kcal/mol]
1,CTTGTCACGTGGGCGT,-0.07
2,TCGGACACGTGAGTTG,0.42
3,TACGGCACGTGTAGTA,0.18
4,GACTTCACGTGATGTT,0.43
5,TCGGGCACGTGACGTT,-0.02
6,GTATGCACGTGCTGGT,-0.17
7,GTGGACACGTGTAAAT,0.39
8,GTCTACACGTGGGGGC,-0.02
9,GGATACACGTGGGTCA,-0.01
10,AGAAGCACGTGGGATT,-0.06
11,TTTTTCACGTGTAGCA,0.33
12,GGGCTCACGTGCTGGA,0.32
13,TCTTTCACGTGATTAG,0.34
14,CTTTGCACGTGCGTTG,-0.22
15,AGAGGCACGTGACTGT,-0.06
16,ACGTGCACGTGTGTGG,-0.08
17,GGCGTCACGTGGTGTT,0.12
18,CGGTTCACGTGGTGAG,0.24
19,ATGTGCACGTGACATG,0.08
20,AGAGTCACGTGTTTTG,0.28
21,TAATGCACGTGTAGCG,-0.08
22,TGCTACACGTGAGGAT,0.22
23,GATGTCACGTGAGTTG,0.26

row,Sequence,relative binding free energy [kcal/mol]
1,TCTTTCACGTGGGTAC,0.17
2,TAAGTCACGTGTATAA,0.09
3,TAATTCACGTGAGGCG,0.24
4,ATCGGCACGTGTGTAG,-0.12
5,GTTGACACGTGGGTCG,-0.04
6,CGAGGCACGTGGTAAG,-0.16
7,AGATTCACGTGTAATG,0.29
8,TTGGACACGTGTGAGT,0.13
9,TTATACACGTGGGTAG,-0.16
10,TTGTGCACGTGGGAAA,-0.02
11,GGTGTCACGTGCGGTG,0.18
12,GAGAGCACGTGAGTGT,0.14
13,TATATCACGTGAAGTC,0.43
14,GTGTGCACGTGCGTGT,-0.02
15,TAGGCCACGTGTGGCT,0.08
16,AACTGCACGTGGGTAT,-0.17
17,GTCGTCACGTGTGGCG,0.07
18,AAGGGCACGTGTTGTC,-0.06
19,TAGGGCACGTGGCCTT,-0.18
20,TTCGGCACGTGGGGAA,-0.12
21,TCTGTCACGTGGAGTT,0.19
22,GGCGACACGTGTTTGT,0.19
23,AGTGGCACGTGACGCG,0.04

row,Sequence,relative binding free energy [kcal/mol]
1,GCGTGCACGTGAGTGA,0.26
2,CGGAACACGTGGGCGG,-0.06
3,TGGGACACGTGATGGA,0.13
4,TATATCACGTGCGGTG,-0.04
5,GTGTTCACGTGTGTTA,0.31
6,TTAGTCACGTGAATGT,0.21
7,CTAGTCACGTGGGTCA,0.02
8,CGTGGCACGTGTATTG,-0.05
9,GTGTCCACGTGTTAAT,0.15
10,TGTATCACGTGATGGT,0.28
11,ATTGGCACGTGCAAGT,-0.16
12,GTTTGCACGTGTCAGG,0.04
13,TTATTCACGTGTGATC,0.32
14,TAGTGCACGTGGGGTT,-0.14
15,GGGGACACGTGGATCT,0.1
16,ATGTGCACGTGTTTGA,-0.09
17,GGGGCCACGTGGAGAG,-0.08
18,CTTTACACGTGTTATA,0.1
19,GCTGTCACGTGTGCTT,0.22
20,CTATTCACGTGATAGT,0.21
21,TCAGTCACGTGTTAGG,0.06
22,GTGTTCACGTGTGGTC,0.27
23,TGGCGCACGTGTTTGC,-0.1

row,Sequence,relative binding free energy [kcal/mol]
1,AGGTGCACGTGGTTAT,-0.13
2,GGTAGCACGTGGGTCA,-0.26
3,GTTGGCACGTGGTGCG,-0.15
4,ATTAGCACGTGTTCTG,-0.12
5,GAGAACACGTGTTATG,0.18
6,GACTTCACGTGAGTGT,0.49
7,GTTATCACGTGGCGGG,0.09
8,ATTGGCACGTGTACGA,-0.12
9,TGGTTCACGTGAATAG,0.38
10,TTGTTCACGTGGGTGT,0.25
11,TAGGACACGTGTACTG,0.11
12,CATTTCACGTGGTTAA,0.27
13,GATTACACGTGGGTAT,0.09
14,AGGGGCACGTGAGCTG,0.24
15,ATGGGCACGTGGTTAG,-0.26
16,TGTTGCACGTGGGGTC,-0.1
17,CTGTGCACGTGGAAGT,-0.18
18,AGTATCACGTGAGTAG,0.28
19,GAGAGCACGTGGCGGT,-0.22
20,GGCGTCACGTGAATTT,0.31
21,ATTTGCACGTGGTCAT,0
22,TGATGCACGTGTGATC,0.05
23,TATGGCACGTGAAGGC,0.28
